Laboratory results: PubChem BioAssay AID588795 (National Center for Advancing Translational Sciences (NCATS), 2011)
Where “and” joins values, the source holds several entries; their conditions need not be identical. Equal entries are not always repeated. In all, about 390,000 compounds went through this assay and about 1,400 (0.36%) were called active. This list was built around the results that the source calls inconclusive (neither active nor inactive); the mix of calls is not that of the screen. Calls follow the shape of the dose curve; as a rule, active = well fitted inhibition curve with a large enough effect; inconclusive = small, poorly fitted or top-dose-only effect; inactive = no such curve, though single readings can be large or run the other way. Potencies of inconclusive entries are doubtful fits and often do not repeat.

Each compound was assayed against Flap endonuclease 1 (Homo sapiens) (UniProt P39748) (assay: qHTS Assay for the Inhibitors of Human Flap endonuclease 1 (FEN1).). Conditions: Recombinant FEN1 flap cleavage, fluorescence, 15 min; series mostly up to 114 µM; activity change, negative = inhibition: at the top concentration.
Chain of UniProt P39748 (P39748 whole entry, looked up): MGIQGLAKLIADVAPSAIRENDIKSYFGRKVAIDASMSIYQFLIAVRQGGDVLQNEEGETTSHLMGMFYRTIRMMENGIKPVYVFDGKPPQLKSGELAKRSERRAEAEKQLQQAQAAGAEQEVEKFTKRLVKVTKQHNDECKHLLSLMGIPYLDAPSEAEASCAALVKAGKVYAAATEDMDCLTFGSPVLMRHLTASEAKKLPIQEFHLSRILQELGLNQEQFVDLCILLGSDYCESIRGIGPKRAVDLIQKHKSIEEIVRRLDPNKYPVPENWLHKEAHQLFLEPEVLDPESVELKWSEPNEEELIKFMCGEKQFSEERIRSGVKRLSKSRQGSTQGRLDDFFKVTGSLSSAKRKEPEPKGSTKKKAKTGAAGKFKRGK
Summary of the method: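 Steps: FEN1 (10 nM) dispensed; compound added by pin tool; 15 min at room temperature; substrate added to 50 nM final; reads at 0 min and 15 min; data normalized and fitted (four-parameter Hill).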
% is scaled to controls: 0 for no effect and ±100 for the full control effect; potency is read from the fitted curve at half-maximal effect; tags tell the direction and shape of the fitted curve.
Also: nearly all actives have a fitted effect of over 65% in size.

| SMILES | Potency | activity change, negative = inhibition |
| --- | --- | --- |
| COc1ccc(-n2nnnc2S(=O)(=O)CC(=O)N2CCCCC2)cc1 | inconclusive: 25.1 µM [inhibitor, single point] | – |
| COc1ccc(C(c2c(C)[nH]n(-c3ccccc3)c2=O)c2c(C)[nH]n(-c3ccccc3)c2=O)cc1OC | inconclusive: 56.2 µM [inhibitor, partial curve, poor fit] | – |
| COc1ccc(C2CC(O)(c3ccccc3)Oc3cc(OC)ccc32)cc1 (stereo unspecified) | inconclusive: 56.2 µM [inhibitor, partial curve, poor fit] | – |
| CCOc1ccc(NC(=O)CN2CCCN(Cc3cc(C)ccc3C)S2(=O)=O)cc1 | inconclusive: 89.1 µM [inhibitor, single point] | – |
| c1ccc2c(CSc3nnc(-c4ccncc4)o3)cccc2c1 | inconclusive: 89.1 µM [inhibitor, partial curve, poor fit] | – |
| COc1ccc(C(CNC(=O)c2ccc(S(=O)(=O)Nc3ccccc3OC)cc2)N2CCCC2)cc1 (stereo unspecified) | – | inactive: -8.13% |
| COc1cc(C2Oc3ccccc3C=C2[N+](=O)[O-])cc(OC)c1OC (stereo unspecified) | inconclusive: 79.4 µM [inhibitor, partial curve] | – |
| Cc1[nH]c2c(Cl)cccc2c1CCNC(=O)C1CCCCC1C(=O)OCC(F)(F)F (stereo unspecified) | inconclusive: 22.4 µM [inhibitor, partial curve, poor fit] | – |
| C1=CN2CC=Cc3cc(/C=C/c4ccnc5ccccc45)cc(c32)C1 | inconclusive: 50.1 µM [inhibitor, partial curve] | – |
| CCN(CCCNC(=O)Cn1ncc2c([nH]c3ccc(C)cc32)c1=O)c1cccc(C)c1 | inconclusive: 3.55 µM [inhibitor, partial curve, poor fit] | – |
| CCCc1nnc(SCC(=O)N2CCOCC2)n1CCCOC | – | inactive: 0.061% |
| O=C1CSC2(C(=O)N(Cc3ccccc3F)c3ccccc32)N1c1ccc(F)cc1 (stereo unspecified) | inconclusive: 50.1 µM [inhibitor, partial curve, poor fit] | – |
| COc1ccc(S(=O)(=O)N2CCc3ccccc32)cc1C(=O)NCc1ccco1 | – | inactive: 8.59% |
| Cc1ccc(S(=O)(=O)N2CCOCC2)cc1C(=O)OCC(=O)Nc1ccc2[nH]c(=O)[nH]c2c1 | inconclusive: 35.5 µM [inhibitor, partial curve, poor fit] | – |
| CCOC(=O)c1cccc(NC(=O)[C@@H](c2ccccc2)N2Cc3ccccc3C2=O)c1 | inconclusive: 79.4 µM [inhibitor, partial curve, poor fit] | – |
| NC(=O)c1ccsc1NC(=O)COC(=O)CCOc1ccccc1 | inconclusive: 89.1 µM [inhibitor, single point] | – |
| COc1ccccc1NC(=O)C(=O)NCCc1csc(-c2cccc(F)c2)n1 | – | inactive: 10.7% |
| O=C1C=CC(=Nc2cccc3c2C(=O)c2ccccc2-3)O1 | inconclusive: 50.1 µM [inhibitor, partial curve] | – |
| Cc1ccc(OCC(=O)Nc2nnc(SCc3cc(=O)c4ccccc4[nH]3)s2)cc1 | – | inactive: -10.3% |
| O=C1c2cc(CO)cc(O)c2C(=O)c2c(O[C@@H]3OC(CO)[C@@H](O)[C@@H](O)[C@@H]3O)cccc21 (stereo partly specified) | inconclusive: 44.7 µM [inhibitor, partial curve] | – |
| CCOc1ccc(CCNC(=O)C2CC(C)=CCC2C(=O)O)cc1OCC (stereo unspecified) | – | inactive: -3.77% |

| SMILES | Potency | activity change, negative = inhibition |
| --- | --- | --- |
| N#CCC(=O)c1sccc1-n1cccc1 | – | inactive: -24.4% |
| Cc1nn(-c2ccccc2)c2c1C1(C(=O)N3c4c(cccc41)C(C)CC3(C)C)C(C#N)=C(N)O2 (stereo unspecified) | inconclusive: 70.8 µM [inhibitor, partial curve, poor fit] | – |
| COc1ccc(-c2nc3ccc(N4CCCC4)cc3c(=O)[nH]2)cc1OC | inconclusive: 79.4 µM [inhibitor, partial curve, poor fit] | – |
| O=c1cc(-c2ccccc2Cl)oc2c([N+](=O)[O-])c(O)cc(O)c12 | inconclusive: 44.7 µM [inhibitor, partial curve] | – |
| O=C(C[n+]1csc2ccccc21)c1ccc(O)c(O)c1 | active: 50.1 µM | – |
| O=[N+]([O-])c1cc(S(=O)(=O)N2CCCCCC2)ccc1Cl | – | inactive: -11.7% |
| Cc1cc(C)cc(NC(=O)Cn2nnc(C(=O)NCc3ccc(F)cc3)c2N)c1 | inconclusive: 89.1 µM [inhibitor, single point] | – |
| COc1ccc(CCn2c(NN=C(C)C)nc3c2c(=O)[nH]c(=O)n3C)cc1 | inconclusive: 10 µM [inhibitor, partial curve, poor fit] | – |
| Cc1ccc(/C=N/Nc2cccc(C(=O)O)c2)s1 | – | inactive: 7.86% |
| N#Cc1ccc(/C=C/C(=O)c2ccccc2)cc1 | – | inactive: -16.4% |
| Cc1ccc(F)c(C2C3C=CCC(c4ccccc4)C3C(=O)N2Cc2ccccc2)c1 (stereo unspecified) | – | inactive: -16% |
| Cc1ccc(N2C(=O)/C(=C/c3ccco3)SC2=S)cc1 | – | inactive: -4.93% |
| COc1cc(C2CC(=O)Oc3c2c(=O)n(C)c2ccccc32)ccc1O (stereo unspecified) | inconclusive: 20 µM [inhibitor, partial curve, poor fit] and inconclusive: 44.7 µM [inhibitor, partial curve] | – |
| CC(=O)N1N=C(c2ccc(C)cc2)OC1c1ccc(C(C)C)cc1 (stereo unspecified) | inconclusive: 100 µM [inhibitor, partial curve, poor fit] | – |
| N#C/C(=C\c1ccc(OCc2ccc(Br)cc2)cc1)C(=O)Nc1cccc(C(=O)O)c1 | inconclusive: 50.1 µM [inhibitor, partial curve] | – |
| CC(C)(C)[C@H](N)C(=O)N[C@H]1CCC2C3CC=C4C[C@@H](O)CC[C@]4(C)C3CC[C@@]21C (stereo partly specified) | inconclusive: 79.4 µM [inhibitor, partial curve] | – |
| Cc1cccnc1NC(=O)c1ccccc1NC(=O)C(C)(C)C | inconclusive: 89.1 µM [inhibitor, partial curve, poor fit] | – |
| O=C(Nc1ccc2oc(-c3ccncc3)nc2c1)c1cccs1 | inconclusive: 89.1 µM [inhibitor, single point] | – |
| Cc1ccc(N2CCOCC2)c2c1C(=O)c1ccccc1C2=O | inconclusive: 50.1 µM [inhibitor, partial curve, poor fit] | – |
| COC(=O)c1c(NC(=O)CCCOc2cccc(C)c2)sc2c1C(C(=O)OC)CC2 (stereo unspecified) | active: 70.8 µM | – |
